Reference: patent publication US20190111115A1 (published 2019)

T1: murine FcγRIV (UniProt A0A0B4J1G0 21-203)
T1 chain: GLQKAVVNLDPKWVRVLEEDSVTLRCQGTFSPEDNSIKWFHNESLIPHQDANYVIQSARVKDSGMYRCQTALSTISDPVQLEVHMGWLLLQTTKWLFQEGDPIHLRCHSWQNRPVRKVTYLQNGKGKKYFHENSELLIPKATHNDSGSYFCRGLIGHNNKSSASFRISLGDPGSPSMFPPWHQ

T2: human FcγRIIA (H131) fused with GST (human, UniProt P12318 34-217)
T2 chain: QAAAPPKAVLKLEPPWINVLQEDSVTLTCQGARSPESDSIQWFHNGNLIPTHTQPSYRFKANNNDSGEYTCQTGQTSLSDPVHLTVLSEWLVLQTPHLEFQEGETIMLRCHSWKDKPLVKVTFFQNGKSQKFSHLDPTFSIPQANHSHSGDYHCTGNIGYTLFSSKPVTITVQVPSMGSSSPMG

T3: human FcγRI fused with GST (human, UniProt P12314 16-292)
T3 chain: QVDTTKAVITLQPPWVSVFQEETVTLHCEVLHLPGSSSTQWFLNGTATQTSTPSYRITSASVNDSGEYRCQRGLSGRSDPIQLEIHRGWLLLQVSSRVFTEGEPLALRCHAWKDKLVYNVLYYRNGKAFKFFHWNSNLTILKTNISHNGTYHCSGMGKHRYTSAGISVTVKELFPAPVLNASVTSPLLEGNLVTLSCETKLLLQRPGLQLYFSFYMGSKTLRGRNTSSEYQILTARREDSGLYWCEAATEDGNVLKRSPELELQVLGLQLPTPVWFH


Experiments:
Assay in all cases: ELISA
murine FcγRIV = target: T1, murine FcγRIV
[1] = target: T2, human FcγRIIA (H131) fused with GST
[2] = target: T3, human FcγRI fused with GST
Mouse FcRI = target: Mouse FcRI
Human FcRn = target: Human FcRn
Mouse FcRIII = target: Mouse FcRIII
Human FcRIII = Human FcRIII (human)
Sequence of Human FcRIII (chain, as listed by the source): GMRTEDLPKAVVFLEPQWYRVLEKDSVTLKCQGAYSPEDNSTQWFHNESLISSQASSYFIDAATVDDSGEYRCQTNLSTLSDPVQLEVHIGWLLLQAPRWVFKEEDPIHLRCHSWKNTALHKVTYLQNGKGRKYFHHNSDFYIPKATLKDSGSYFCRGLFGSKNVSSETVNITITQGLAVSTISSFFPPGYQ

Mouse FcRIIB = target: Mouse FcRIIB
Human FcRIIA[R] = target: Human FcRIIA[R]
Human FcRIIB = target: Human FcRIIB

Kd (murine FcγRIV) [nM]	Kd [1] [nM]	Kd [2] [nM]	Kd (Mouse FcRI) [nM]	Kd (Human FcRn) [nM]	Kd (Mouse FcRIII) [nM]	Kd (Human FcRIII) [nM]	Kd (Mouse FcRIIB) [nM]	Kd (Human FcRIIA[R]) [nM]	Kd (Human FcRIIB) [nM]	Binder
0.12	0.36	0.13	–	–	–	–	–	–	–	P8003Z3 (afucosyl variant of P8003Z) (Fc fusion, afucosyl: lacks the core fucose of the N-glycan (produced from a cell line deficient of the alpha-1,6 fucosyltransferase gene, FUT8-/-)) [about 120 residues cut from this listing][human IgG1 constant region cut from this listing]GGGSGGGGSGGGGSGGGGSGGGGS[human IgG1 Fc cut from this listing]GGGSGPPGISGPPGDPGLPGKDGDHGKPGIQGQPGPPGICDPSLCFSVIARRDPFRKGPNY
0.92	0.5	0.15	0.13	0.37	7.71	2.78	261	0.19	2.81	P8003Z1 (Fc fusion) [about 120 residues cut from this listing][human IgG1 constant region cut from this listing]GGGSGGGGSGGGGSGGGGSGGGGS[human IgG1 Fc cut from this listing]GGGSGPPGISGPPGDPGLPGKDGDHGKPGIQGQPGPPGICDPSLCFSVIARRDPFRKGPNY
–	–	–	0.24	0.43	17.9	0.17	84	0.17	2.45	P8003Z3 (Fc fusion, afucosyl: lacks the core fucose of the N-glycan (produced from a cell line deficient of the alpha-1,6 fucosyltransferase gene, FUT8-/-)) [about 120 residues cut from this listing][human IgG1 constant region cut from this listing]GGGSGGGGSGGGGSGGGGSGGGGS[human IgG1 Fc cut from this listing]GGGSGPPGISGPPGDPGLPGKDGDHGKPGIQGQPGPPGICDPSLCFSVIARRDPFRKGPNY
